# Assay results taken from PubChem BioAssay AID588579 (National Center for Advancing Translational Sciences (NCATS), 2011).
# Where “and” joins values, the source holds several entries; their conditions need not be identical. Identical values can stand only once. Screen size: about 400,000 compounds; about 2,200 (0.55%) were called active. The shares of active, inactive and inconclusive entries below differ from those in the screen. Calls follow the shape of the dose curve; as a rule, active = well fitted inhibition curve with a large enough effect; inconclusive = small, poorly fitted or top-dose-only effect, or another doubt; inactive = no such curve, though single readings can be large or run the other way. Potencies beside an inconclusive call are fits to weak or partial responses and may not hold up.
# Target: DNA polymerase kappa (Homo sapiens) (UniProt Q9UBT6)
# Sequence of UniProt Q9UBT6 (Q9UBT6 whole entry, looked up): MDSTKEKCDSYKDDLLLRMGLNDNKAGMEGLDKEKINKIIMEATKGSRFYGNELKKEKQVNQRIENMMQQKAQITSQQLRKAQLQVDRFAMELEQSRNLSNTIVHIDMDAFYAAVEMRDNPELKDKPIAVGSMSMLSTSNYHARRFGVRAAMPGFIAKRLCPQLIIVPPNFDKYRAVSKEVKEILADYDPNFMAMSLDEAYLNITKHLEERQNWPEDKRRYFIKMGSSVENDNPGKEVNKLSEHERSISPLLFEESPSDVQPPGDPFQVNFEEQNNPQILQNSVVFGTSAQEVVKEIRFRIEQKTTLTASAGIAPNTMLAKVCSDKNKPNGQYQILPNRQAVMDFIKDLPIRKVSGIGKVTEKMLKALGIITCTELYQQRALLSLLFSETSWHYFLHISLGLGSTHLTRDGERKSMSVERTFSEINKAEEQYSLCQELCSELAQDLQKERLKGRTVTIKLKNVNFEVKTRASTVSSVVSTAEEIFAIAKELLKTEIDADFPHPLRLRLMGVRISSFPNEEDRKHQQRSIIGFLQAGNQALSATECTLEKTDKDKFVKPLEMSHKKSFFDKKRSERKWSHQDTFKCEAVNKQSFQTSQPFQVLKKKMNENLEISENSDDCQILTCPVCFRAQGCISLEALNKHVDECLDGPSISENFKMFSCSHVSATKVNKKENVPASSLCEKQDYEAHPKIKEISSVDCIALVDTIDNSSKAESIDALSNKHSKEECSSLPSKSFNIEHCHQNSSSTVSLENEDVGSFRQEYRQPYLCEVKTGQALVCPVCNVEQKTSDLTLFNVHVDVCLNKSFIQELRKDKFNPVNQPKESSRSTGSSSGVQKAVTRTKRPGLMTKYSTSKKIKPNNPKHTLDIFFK
# Assay: qHTS for Inhibitors of Polymerase Kappa
# Details: purified Pol kappa, fluorescent DNA synthesis assay, 10 min; series mostly up to 107 µM
# Procedure, shortened: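 Enzyme at 10 nM met test compounds for 15 min at room temperature. Substrate addition (50 nM final) began the reaction, which was monitored by fluorescence at 0 and 10 min.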
# Potency is read from the fitted curve at half-maximal effect; tags tell the direction and shape of the fitted curve.
row,SMILES,Potency
1,COc1cc(NS(=O)(=O)c2ccc(NC(=S)NC(=O)/C=C/c3ccco3)cc2)ncn1,active: 7.08 µM
2,CCCCN(CCCC)c1ccc(/C=C2\C=Cc3ccccc32)cc1,inactive
3,COc1cc(S(=O)(=O)NCCOC23CC4CC(CC(C4)C2)C3)c(OC)cc1Cl,"inconclusive: 89.1 µM [inhibitor, single point]"
4,CCOC(=O)c1c(NC(=O)/C=C/c2ccc(C(C)C)cc2)sc2c1CCC2,inactive
5,COc1ccc(C(CC(=O)N2CCOCC2)c2c(OC)cc(OC)c3c(-c4ccccc4)cc(=O)oc23)cc1 (stereo not given),"inconclusive: 70.8 µM [inhibitor, single point] and inconclusive: 56.2 µM [inhibitor, partial curve, poor fit]"
6,CC(C)(Oc1ccc(Cl)cc1)C(=O)NCc1ccc(S(N)(=O)=O)cc1,"inconclusive: 89.1 µM [inhibitor, single point]"
7,COc1ccc(NC(=O)C(c2ccc(C)cc2)N(C)C(=O)/C=C\c2ccc3c(c2)OCO3)cc1 (stereo not given),"inconclusive: 89.1 µM [inhibitor, single point]"
8,CCOc1ccc(-c2nonc2NC(=O)c2oc3ccc(F)cc3c2C)cc1,"inconclusive: 100 µM [inhibitor, single point]"
9,Cc1cccc(OC(=O)CSc2nnc(CNC(=O)c3ccccc3)o2)c1C,inactive
10,CN(C)c1ccc(/C=C/c2ccnc3ccccc23)c(N)c1,inactive
11,CC1(OC(=O)c2ccc(Cl)nc2)C(=O)C=C2C=C3CCCN3C=C2C1=O (stereo not given),active: 50.1 µM
12,Cc1ccc(NC(=O)CSCC(=O)Nc2ncc3c(n2)CC(c2ccco2)CC3=O)cc1 (stereo not given),"inconclusive: 56.2 µM [inhibitor, partial curve, poor fit]"
13,O=C(CCCl)Nc1nnc(SCC(=O)NC2CCCC2)s1,inactive
14,COc1ccccc1NC(=O)Nc1ccnn1C1CCN(C(=O)c2cscn2)CC1,active: 39.8 µM
15,CC1(C)CC[C@]2(C(=O)O)CC[C@@]3(C)C(=CCC4[C@@]5(C)CCC(O)[C@@](C)(CO)C5CC[C@@]43C)C2C1 (stereo not given in full),"inconclusive: 39.8 µM [inhibitor, single point]"
16,COc1ccccc1NC(=O)c1oc2ccccc2c1NC(=O)c1cccc(OC)c1OC,inactive
17,Nc1ccc2ccc(O)cc2c1,"inconclusive: 89.1 µM [inhibitor, single point]"
18,Cn1nc(C(C)(C)C)c([N+](=O)[O-])c1C(=O)Nc1ccccc1,inactive
19,COc1ccc2[nH]c3c(C)c4ccncc4c(C)c3c2c1,active: 50.1 µM
20,NC(=O)CSc1nc2c(sc3ccccc32)c(=O)n1CCCC(=O)NCC1CCCO1 (stereo not given),"inconclusive: 100 µM [inhibitor, partial curve, poor fit]"
